In paper PMC6451091:
This is one part of the list. For part of these data: At the low end of the ranking the order means little. For part of these data: Measured with an extract: partners may take part in the binding.

How the values were obtained:
Details in all cases: 20 mM HEPES pH 7.9, 100 mM NaCl, 1 mM DTT, 0.2 mg/mL BSA, 0.02% Triton X-100, 2% milk, 0.4 mg/mL salmon testes DNA; 1 h; temperature not stated; high values mean tight binding; double strand, one strand shown; sequences stand for … in GCCTAGCAC…GTGCTAGGTCTTGATTCGCTTGACGCTGCTG
PU.1 (IVT) = PU.1 (IVT) (UniProt P17947); test: protein-binding microarray (PBM)
[1] = target: PU.1 (endogenous, THP-1 nuclear extract) (UniProt P17947); test: nuclear extract protein-binding microarray (nextPBM)
[2] = target: T1, FLI1 (endogenous, THP-1 nuclear extract) (UniProt Q01543); test: as above
T1 sequence: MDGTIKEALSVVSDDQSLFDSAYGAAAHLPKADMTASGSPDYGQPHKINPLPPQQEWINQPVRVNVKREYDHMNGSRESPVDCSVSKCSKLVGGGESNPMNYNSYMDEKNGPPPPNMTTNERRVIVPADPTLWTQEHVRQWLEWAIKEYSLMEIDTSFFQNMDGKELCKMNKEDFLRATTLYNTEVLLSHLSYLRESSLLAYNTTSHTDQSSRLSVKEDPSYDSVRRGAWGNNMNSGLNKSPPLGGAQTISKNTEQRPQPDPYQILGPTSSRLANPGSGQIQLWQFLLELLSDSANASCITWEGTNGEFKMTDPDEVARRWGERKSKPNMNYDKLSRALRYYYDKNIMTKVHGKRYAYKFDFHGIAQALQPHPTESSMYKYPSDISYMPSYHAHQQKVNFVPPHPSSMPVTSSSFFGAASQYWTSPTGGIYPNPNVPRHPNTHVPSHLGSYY

Sequence | binding signal (PU.1 (IVT)) | binding signal [1] | binding signal [2]
AGAAAGAGGAAGTCACTCAC | 8.12 z-score | 7.2 z-score | 3.99 z-score
CAGAAGGGGAAGTGATATAG | 5.72 z-score | 6.05 z-score | 3.03 z-score
CTAAGAAGGAACTGGCCCTT | 1.38 z-score | 1.77 z-score | 0.536 z-score
GCAGAAAGGAAGTGGGTTAT | 2.38 z-score | 2.15 z-score | 3 z-score
GGAATAAGGAAGTGATATAG | 5.99 z-score | 6.39 z-score | 2.37 z-score
ACGATGAGGAAGTGGTTAGT | 5.44 z-score | 6.1 z-score | 2.8 z-score
CTGATGAGGAAGTGGAACAA | 4.89 z-score | 5.84 z-score | 2.45 z-score
TTTAAGAGGAAATGATTCTA | 2.78 z-score | 2.64 z-score | 2.36 z-score
GAAATGAGGAAGTTGGTGCT | 8.11 z-score | 7.37 z-score | 3.97 z-score
ACAGAAAGGAAGTGGTCAAC | 1.98 z-score | 2.23 z-score | 2.4 z-score
ATGAAAAGGAAGTGGGAGGT | 2.38 z-score | 2.64 z-score | 2.46 z-score
GAGAAGGGGAAGTGAGACAG | 5 z-score | 5.77 z-score | 2.51 z-score
TGGGAGAGGAAGTGAGAGAT | 3.7 z-score | 4.05 z-score | 3.09 z-score
CAAATGGGGAACTGATGCGG | 4.64 z-score | 5.17 z-score | 1.11 z-score
AGAAAGAGGAACTGAGAAAA | 6.2 z-score | 6.62 z-score | 2.36 z-score
AAAAAGAGGAAATGTAAATG | 6.13 z-score | 5.82 z-score | 2.91 z-score
AAAATGAGGAAGTCACTGAG | 8.03 z-score | 7.32 z-score | 3.4 z-score
AGGAAGGGGAAGTATTTGAG | 5.89 z-score | 5.54 z-score | 3.13 z-score
GTGCAAAGGAAGTGCCCACA | 1.07 z-score | 1.18 z-score | 2.12 z-score
CAGAAAGGGAAGTCCAAGAT | 3.75 z-score | 4.34 z-score | 1.65 z-score
CTAAACAGGAAGTGAGGATG | 5.58 z-score | 6.3 z-score | 5.72 z-score

Sequence | binding signal (PU.1 (IVT)) | binding signal [1] | binding signal [2]
CAAATGAGCAACTGATGCGG | -0.716 z-score | -0.331 z-score | -0.862 z-score
ACAATAAGGAAGTGACAGTG | 4.84 z-score | 5.01 z-score | 2.27 z-score
GGGAAGAGGAAGTAGATGGA | 6.08 z-score | 6.45 z-score | 3.33 z-score
GAAAAGAGGAAGTCAAACTA | 8.35 z-score | 7.32 z-score | 4.06 z-score
CAAAAGGGGAAGTGCTAAAC | 7.7 z-score | 7.16 z-score | 3.29 z-score
TGAGAGAGGAAGTGCAACCA | 4.26 z-score | 4.51 z-score | 3.08 z-score
TAAAAGGGGAAGTCAGACAT | 7.25 z-score | 7.31 z-score | 3.24 z-score
AGAAAGAGGAACTGCCCTGC | 6.95 z-score | 6.87 z-score | 2.61 z-score
TGAAAGAGGAAGTCTGGGTG | 6.38 z-score | 6.68 z-score | 3.33 z-score
GCAAGGAGGAAGTCATCCAT | 4.41 z-score | 4.78 z-score | 2.61 z-score
CGAAAGGGGAAGGGCTAAAC | 2.64 z-score | 2.91 z-score | 0.685 z-score
CAAAGGGGGAAGTGCCACAC | 4.94 z-score | 5.44 z-score | 2.03 z-score
CCAAAAGGGAAGTGGATGCT | 4.98 z-score | 5.05 z-score | 2.58 z-score
ACTTTAAGGAAGTGAGATAA | 4.39 z-score | 4.61 z-score | 1.96 z-score
GAAAGGAGGAAGTGCTACTT | 6.55 z-score | 6.71 z-score | 3.51 z-score
CAAAAGAGGAAGAGTCTGAC | 4.26 z-score | 5.02 z-score | 1.74 z-score
CAGCAGAGGAAGTGAAAAGC | 2.56 z-score | 2.95 z-score | 2.31 z-score
AAAGAGAGGAAGTCCCAAGA | 3.78 z-score | 3.8 z-score | 2.24 z-score
CATTTGGGGAAGTGAAAAGA | 5.54 z-score | 5.89 z-score | 2.13 z-score
TGTAAAAGGAAGTCAGCTGA | 2.69 z-score | 2.54 z-score | 2.4 z-score
AGAATAGGGAAGTGAGAAAT | 6.39 z-score | 6.76 z-score | 2.76 z-score

Sequence | binding signal (PU.1 (IVT)) | binding signal [1] | binding signal [2]
GAAAAAAGGAAGTCCCATAG | 5.66 z-score | 5.85 z-score | 2.43 z-score
TAAATGAGGAAGTGCTCCAT | 8.21 z-score | 7.41 z-score | 3.42 z-score
AAAATGAGGAAGTACCCTCT | 8.28 z-score | 7.35 z-score | 3.86 z-score
TGAAAGAGGAAGTGGATAGG | 7.5 z-score | 7.41 z-score | 4.14 z-score
GGAAAGGGGAAGTGGGTTAA | 7.25 z-score | 7.01 z-score | 3.83 z-score
GTTGAGAGGAAGTGAAGCTT | 3.94 z-score | 3.9 z-score | 2.83 z-score
CTGTTGGGGAAGTGGAGAGG | 2.58 z-score | 2.51 z-score | 1.21 z-score
CCTAAGAGGAAGTGGAAAGC | 5.22 z-score | 6.09 z-score | 2.89 z-score
GAAAAGAGGAAGGGGGTGAG | 4.67 z-score | 5.36 z-score | 1.74 z-score
TTGAAAAGGAAGTGCAACAA | 2.73 z-score | 2.29 z-score | 2.19 z-score
AAAAAGAGGAAGAGAAATAG | 6.3 z-score | 6.4 z-score | 2.23 z-score
ACATAGGGGAAGTGCCATCT | 4.28 z-score | 4.66 z-score | 2.04 z-score
CAACTGAGGAAGTGATCTCA | 3.75 z-score | 3.55 z-score | 1.96 z-score
GAAATGAGGAAGTGACAGAC | 7.94 z-score | 7.23 z-score | 3.77 z-score
AGACAGAGGAAGTGAAGGGC | 2.94 z-score | 3.15 z-score | 2.4 z-score
TAAATGAGGAAGTGCACTTG | 7.75 z-score | 7.42 z-score | 3.56 z-score
ATAGGGAGGAAGTTGTAACT | 4.15 z-score | 3.65 z-score | 2.57 z-score
CTAAGAAGGAAGTGCTGACA | 3.02 z-score | 2.83 z-score | 1.89 z-score
GATAAGAGGCAGTCCTCTGT | -0.225 z-score | -0.14 z-score | -0.241 z-score
GGTTTGAGGAAGTGGTTTGA | 6.58 z-score | 6.72 z-score | 2.94 z-score
GATAAGAGGAAGTCCTCTTT | 6.29 z-score | 6.56 z-score | 2.98 z-score
